Measurements from the supplement of paper PMC12217912.
The list shows a part of the results. The full chains were built here from the parent and the listed change. Values near 0.05 are background.

B1: TEV protease; numbered along this chain (parent)
chain: MGESLFKGPRDYNPISSSICHLTNESDGHTTSLYGIGFGPFIITNKHLFRRNNGTLVVQSLHGVFKVKDTTTLQQHLVDGRDMIIIRMPKDFPPFPQKLKFREPQREERICLVTTNFQTKSMSSMVSDTSCTFPSGDGIFWKHWIQTKDGQCGSPLVSTRDGFIVGIHSASNFTNTNNYFTSVPKNFMELLTNQEAQQWVSGWRLNADSVLWGGHKVFMVKPEEPFQPVKEATQL

Variants of: B1
Assay: raw area under fraction-flipped curve 0-4 h after induction (AUC4h, not background-subtracted), DNA-recorder readout of cleavage of the substrate (dimensionless); higher = more cleavage of the substrate by the protease variant
Details: temperature: 34 °C; time window: 0-4 h after rhamnose induction
Procedure: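 In vivo DNA recorder in E. coli TOP10(DE3) ΔrhaA at 34 °C. Each TEVp single-site mutant (parent TEVp 0) is paired with a single-site variant of the 7-mer TEVs (canonical ENLYFQ|S). The substrate sits between flexible linkers in a Bxb1-sfGFP-TEVs-SsrA fusion, so cleavage stabilises Bxb1 and speeds flipping of a recombination array, read by NGS. The value is the raw area under the fraction-flipped curve over 0-4 h after rhamnose induction (AUC4h), with ≥20 reads per time point. It is not background-subtracted; inactive controls average about 0.047.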
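Note: Bxb1 expression induced with 0.2% (w/v) L-rhamnose at OD600 near 0.5, cultures sampled hourly, flipped fraction per protease–substrate barcode pair counted by paired-end Illumina sequencing.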

| Variant | area with substrate ENAYFQS | area with substrate ENCYFQS | area with substrate ENDYFQS | area with substrate ENFYFQS | area with substrate ENGYFQS | area with substrate ENHYFQS | area with substrate ENIYFQS | area with substrate ENNYFQS | area with substrate ENPYFQS | area with substrate ENQYFQS | area with substrate ENRYFQS | area with substrate ENSYFQS | area with substrate ENTYFQS | area with substrate ENVYFQS | area with substrate ENEYFQS | area with substrate ENWYFQS | area with substrate ENKYFQS | area with substrate ENMYFQS | area with substrate ENYYFQS |
| --- | --- | --- | --- | --- | --- | --- | --- | --- | --- | --- | --- | --- | --- | --- | --- | --- | --- | --- | --- |
| S4F | 0.0663 | 0.0954 | 0.0542 | 0.0738 | 0.062 | 0.0567 | 0.166 | 0.0621 | 0.0554 | 0.0504 | 0.0524 | 0.0755 | 0.0639 | 0.0965 | – | – | – | – | – |
| K7N | 0.0551 | 0.0886 | 0.0908 | – | 0.0343 | 0.0451 | – | – | – | – | – | 0.0503 | – | 0.0981 | 0.0747 | 0.0475 | – | – | – |
| K7P | 0.0489 | – | – | 0.0614 | 0.0653 | 0.0988 | 0.0499 | 0.0524 | 0.0683 | 0.0659 | – | 0.063 | 0.0586 | 0.078 | 0.0638 | – | 0.0617 | – | – |
| Y12F | 0.0605 | 0.066 | 0.0636 | – | 0.0611 | – | 0.111 | 0.0611 | 0.0656 | 0.0553 | 0.0666 | 0.0622 | 0.0569 | 0.0804 | 0.054 | – | 0.061 | 0.0939 | – |
| P14Q | 0.0632 | 0.0681 | 0.0716 | 0.0636 | 0.0478 | 0.0558 | – | 0.0544 | 0.0557 | 0.0632 | 0.0559 | 0.056 | 0.0658 | 0.0895 | 0.104 | 0.054 | 0.0652 | – | 0.0556 |
| P14V | 0.0606 | 0.0707 | 0.0578 | 0.0674 | 0.067 | 0.0629 | 0.09 | 0.06 | 0.0527 | 0.0633 | – | 0.0653 | 0.0619 | – | 0.0687 | 0.0159 | 0.0672 | 0.0473 | 0.0639 |
| I15V | 0.0653 | 0.0638 | 0.0609 | 0.0638 | 0.0512 | 0.0464 | – | 0.0596 | 0.0575 | 0.0588 | – | 0.0471 | 0.0692 | 0.0736 | 0.0566 | – | 0.0595 | 0.0738 | – |
| S16P | 0.0529 | 0.0729 | – | – | 0.0739 | 0.0647 | 0.154 | 0.0615 | 0.0655 | 0.0853 | – | 0.0579 | 0.061 | 0.0732 | 0.063 | 0.102 | 0.0532 | – | – |
| S17Y | 0.0653 | 0.0729 | 0.0578 | 0.0619 | 0.0573 | 0.0622 | 0.135 | 0.0562 | 0.0631 | 0.0566 | 0.0498 | 0.0636 | 0.0595 | 0.077 | 0.0613 | 0.0397 | 0.0635 | 0.077 | – |
| C20K | 0.054 | 0.0324 | 0.051 | 0.0668 | 0.0444 | 0.0477 | 0.0489 | 0.0467 | 0.049 | 0.0448 | 0.0507 | – | 0.0493 | 0.0443 | 0.0517 | 0.0395 | 0.0579 | 0.0723 | – |
| C20Y | 0.0616 | 0.0453 | 0.0532 | 0.0533 | – | 0.0706 | 0.0664 | 0.0366 | 0.0372 | 0.0553 | – | 0.0478 | – | – | 0.0296 | – | 0.045 | 0.0569 | – |
| L22F | 0.0394 | 0.0219 | 0.0538 | 0.0322 | 0.054 | – | 0.0733 | – | 0.0654 | 0.0594 | – | 0.0485 | 0.0446 | – | 0.0553 | 0.0064 | 0.0574 | 0.0681 | 0.059 |
| S26M | 0.0439 | 0.0564 | – | 0.0621 | 0.0485 | 0.0564 | – | 0.0555 | 0.0598 | 0.0629 | 0.0499 | 0.0698 | 0.0589 | 0.0682 | 0.062 | 0.0539 | 0.0514 | 0.0504 | 0.0541 |
| D27R | 0.0423 | 0.0674 | 0.0629 | – | – | – | – | 0.0678 | – | 0.0484 | 0.0747 | 0.0543 | 0.0667 | – | – | 0.0785 | 0.0583 | – | 0.0443 |
| D27Y | 0.0614 | – | 0.0604 | 0.062 | 0.0499 | – | 0.0999 | 0.0602 | 0.0619 | 0.0563 | 0.0533 | 0.0542 | 0.0587 | 0.0779 | 0.0568 | 0.0413 | 0.0598 | – | 0.048 |
| G28V | 0.0649 | – | 0.0548 | 0.0615 | 0.0699 | – | – | 0.0672 | 0.0541 | 0.0493 | 0.0564 | 0.0505 | 0.0568 | 0.066 | 0.056 | – | 0.0548 | 0.0562 | 0.0626 |
| T30A | 0.0607 | – | 0.0638 | 0.063 | 0.0619 | 0.0838 | – | 0.0648 | 0.0561 | 0.0526 | 0.0608 | 0.0602 | – | 0.0772 | 0.0546 | 0.0353 | 0.0638 | 0.0932 | 0.0535 |
| T31H | 0.0589 | 0.0649 | 0.062 | 0.0476 | 0.0441 | 0.0657 | 0.0862 | 0.0734 | – | 0.0617 | – | 0.0584 | 0.0579 | 0.0621 | 0.0599 | – | – | – | – |
| T31L | 0.0768 | – | 0.0614 | 0.0451 | 0.0637 | 0.0631 | – | – | 0.0622 | 0.0523 | 0.0684 | 0.0707 | 0.0673 | – | 0.0659 | – | 0.0551 | – | – |
| L33C | 0.0585 | 0.0579 | 0.065 | – | 0.0729 | 0.0541 | 0.124 | 0.0549 | 0.0755 | 0.0532 | 0.0498 | 0.0474 | 0.0541 | 0.0744 | 0.0604 | 0.0626 | 0.0699 | – | 0.0466 |
| L33E | 0.077 | 0.0504 | 0.0473 | 0.0579 | 0.0589 | 0.0742 | 0.0665 | 0.0583 | 0.0456 | 0.0624 | – | 0.0672 | 0.0501 | – | 0.056 | 0.0204 | 0.0557 | – | – |
| Y34N | 0.0564 | 0.043 | 0.062 | – | – | – | – | – | – | 0.0861 | 0.0488 | 0.0649 | – | – | 0.0623 | – | – | 0.0715 | – |
| G35Q | 0.0746 | – | – | 0.0486 | – | – | 0.0537 | – | – | 0.0378 | 0.0634 | – | – | – | – | – | – | 0.0516 | 0.035 |
| G39P | 0.0386 | 0.0446 | 0.0434 | 0.0393 | 0.046 | 0.0343 | – | – | 0.0472 | 0.0439 | 0.0408 | 0.0402 | 0.0442 | 0.0397 | 0.0402 | 0.0085 | 0.0431 | 0.0484 | – |
| F41C | 0.064 | – | 0.0686 | 0.0713 | 0.0664 | – | – | 0.047 | – | 0.0634 | 0.0461 | 0.0582 | 0.0591 | 0.0668 | 0.0572 | 0.0699 | – | 0.0846 | – |
